The source of these data is the antibiotic and cytotoxicity screens of Wong et al. (2023).

This is one part of the list.

In experiment [1] the test system is HSkMC (human skeletal muscle cells). The experiment can be described thus: cytotoxicity call (relative viability < 0.9). Conditions: 10 µM.
The subject of experiment [2] is HepG2. The experiment can be described thus: cytotoxicity call (relative viability < 0.9). The settings on record: 10 µM.
In experiment [3] the test system is S. aureus RN4220. The experiment can be described thus: growth inhibition call (relative growth <= 0.2). Conditions: 50 µM.

Turning to `C[C@H]1CN([C@@H](C)CO)C(=O)Cc2cc(NC(=O)CCCCCC(=O)Nc3ccccc3N)ccc2O[C@@H]1CN(C)C(=O)Nc1ccc(F)cc1`, the cytotoxicity call in experiment [1] and in experiment [2] was “inactive” throughout. For the same compound, the growth inhibition call in experiment [3] is “inactive”.

In the case of `O=C(C[C@@H]1CC[C@H]2[C@@H](COC[C@H](O)CN2C(=O)C2CC2)O1)NCc1ccncc1`, the cytotoxicity call in experiment [1] and in experiment [2] was “inactive” in each case. Besides, the growth inhibition call in experiment [3] was “inactive”.

Turning to `NCc1ccnc(N2CCCC2)c1`, the cytotoxicity call in experiment [1] and in experiment [2] was “inactive” in each case. For the same compound, the growth inhibition call in experiment [3] is “inactive”.

In the case of `COc1ccc(CN(C)C[C@H]2OCCCC[C@H](C)Oc3ccc(NS(=O)(=O)c4ccc(F)cc4)cc3C(=O)N([C@@H](C)CO)C[C@@H]2C)cc1`, the cytotoxicity call in experiment [1] and in experiment [2] was “inactive” in each case. In addition, the growth inhibition call in experiment [3] is “inactive”.

Take `N[C@@H](CC(=O)N1CCn2c(nnc2C(F)(F)F)C1)Cc1cc(F)c(F)cc1F`: the cytotoxicity call in experiment [1] and in experiment [2] was “inactive” throughout. In experiment [3], the growth inhibition call is “inactive”.

Turning to `C[C@@H]1CCCCO[C@H](CN(C)C(=O)Nc2ccc(F)cc2)[C@H](C)CN([C@H](C)CO)C(=O)c2cc(NS(=O)(=O)c3ccc(Cl)cc3)ccc2O1`, the cytotoxicity call in experiment [1] and in experiment [2] was “inactive” in each case. The growth inhibition call in experiment [3] was “inactive”.

As for `Cc1noc(C)c1S(=O)(=O)N(C)C[C@@H]1Oc2ccc(NC(=O)Cc3cn(C)c4ccccc34)cc2CC(=O)N([C@H](C)CO)C[C@@H]1C`, the cytotoxicity call in experiment [1] and in experiment [2] was “inactive” each time. Moreover, the growth inhibition call in experiment [3] is “inactive”.

Consider `C[C@H](CO)N1C[C@H](C)[C@@H](CN(C)Cc2ccc3c(c2)OCO3)Oc2c(NC(=O)c3ccc(-c4nccs4)cc3)cccc2C1=O`, for which the cytotoxicity call in experiment [1] and in experiment [2] was “inactive” each time. The growth inhibition call in experiment [3] is “inactive”.

Turning to `C[C@@H]1CN([C@@H](C)CO)C(=O)c2cc(NC(=O)Nc3ccccc3)ccc2O[C@@H](C)CCCCO[C@@H]1CN(C)C(=O)CCC(F)(F)F`, the cytotoxicity call in experiment [1] and in experiment [2] was “inactive” in each case. In experiment [3], the growth inhibition call is “inactive”.

On to `COc1ccc(S(=O)(=O)N(C)C[C@@H]2OCc3cn(nn3)CCCC(=O)N([C@@H](C)CO)C[C@@H]2C)cc1`, for which the cytotoxicity call in experiment [1] and in experiment [2] was “inactive” throughout. In addition, the growth inhibition call in experiment [3] is “inactive”.

Regarding `C[C@H](CO)N1C[C@H](C)[C@H](CN(C)Cc2ccc(Cl)c(Cl)c2)OCc2ccccc2-c2ccccc2C1=O`, the cytotoxicity call in experiment [1] and in experiment [2] was “inactive” throughout. Further, the growth inhibition call in experiment [3] is “inactive”.

In the case of `C[C@@H]1CCCCO[C@@H](CN(C)Cc2ccc(Cl)c(Cl)c2)[C@@H](C)CN([C@@H](C)CO)C(=O)c2cc(NS(C)(=O)=O)ccc2O1`, the cytotoxicity call in experiment [1] and in experiment [2] was “inactive” in each case. For the same compound, the growth inhibition call in experiment [3] was “inactive”.

Take `C[C@@H]1CN([C@H](C)CO)C(=O)Cc2cc(NC(=O)Cn3cnnn3)ccc2O[C@H]1CN(C)Cc1ccc(Cl)c(Cl)c1`: the cytotoxicity call in experiment [1] and in experiment [2] was “inactive” throughout. In addition, the growth inhibition call in experiment [3] is “inactive”.

Turning to `CN1C(=O)c2cc(NC(=O)c3ccc(C(F)(F)F)cc3)ccc2OC[C@H]2O[C@H](CC(=O)NC3Cc4ccccc4C3)CC[C@@H]21`, the cytotoxicity call in experiment [1] and in experiment [2] was “inactive” in each case. In experiment [3], the growth inhibition call was “inactive”.

Take `Cc1noc(C)c1NC(=O)N(C)C[C@H]1OCCCC[C@@H](C)Oc2ccc(NC(=O)C3CCCCC3)cc2C(=O)N([C@@H](C)CO)C[C@H]1C`: the cytotoxicity call in experiment [1] and in experiment [2] was “inactive” each time. In addition, the growth inhibition call in experiment [3] is “inactive”.

For `NC(=O)c1ncn(C2OC(CO)C(O)C2O)n1` (centres undefined), the cytotoxicity call in experiment [1] and in experiment [2] was “inactive” throughout. The growth inhibition call in experiment [3] was “inactive”.

As to `NCC[C@H]1CC[C@@H](NC(=O)C2CCC2)[C@@H](CO)O1`, the cytotoxicity call in experiment [1] and in experiment [2] was “inactive” in each case. The growth inhibition call in experiment [3] was “inactive”.

In the case of `C[C@@H]1CN([C@H](C)CO)C(=O)c2cc(NC(=O)NC3CCCCC3)ccc2O[C@@H](C)CCCCO[C@@H]1CN(C)C(=O)CCC(F)(F)F`, the cytotoxicity call in experiment [1] and in experiment [2] was “inactive” each time. In addition, the growth inhibition call in experiment [3] was “inactive”.

For the compound `C[C@H](CO)N1C[C@H](C)[C@@H](CN(C)Cc2ccc3c(c2)OCO3)Oc2c(NC(=O)Nc3cccc4ccccc34)cccc2C1=O`, the cytotoxicity call in experiment [1] and in experiment [2] was “inactive” in each case. Moreover, the growth inhibition call in experiment [3] was “inactive”.

Consider `Cc1ccc(S(=O)(=O)N(C)C[C@H]2OCCCC[C@H](C)Oc3ccc(NC(=O)Cc4ccccc4)cc3C(=O)N([C@@H](C)CO)C[C@@H]2C)cc1`, for which, in experiment [1], the cytotoxicity call is “inactive”. For the same compound, the cytotoxicity call in experiment [2] was “active”. Further, the growth inhibition call in experiment [3] is “inactive”.

Consider `CCNC(=O)C[C@H]1CC[C@@H](NC(=O)C2CC2)[C@@H](CO)O1`, for which the cytotoxicity call in experiment [1] and in experiment [2] was “inactive” throughout. Also, the growth inhibition call in experiment [3] was “inactive”.

As for `C[C@H]1CN([C@@H](C)CO)C(=O)c2cccc(NS(=O)(=O)c3cn(C)cn3)c2O[C@H]1CN(C)S(=O)(=O)c1ccc(F)cc1`, the cytotoxicity call in experiment [1] and in experiment [2] was “inactive” throughout. For the same compound, in experiment [3], the growth inhibition call is “inactive”.

As to `COC(=O)c1c(N)c(C#N)c2n1CCC2`, the cytotoxicity call in experiment [1] and in experiment [2] was “inactive” each time. The growth inhibition call in experiment [3] is “inactive”.

For `C[C@@H]1CCCCO[C@@H](CN(C)Cc2ccc(Cl)c(Cl)c2)[C@H](C)CN([C@H](C)CO)C(=O)c2cc(NS(=O)(=O)c3cccs3)ccc2O1`, the cytotoxicity call in experiment [1] and in experiment [2] was “inactive” each time. Besides, the growth inhibition call in experiment [3] is “inactive”.

Consider `C/N=C(\NC)NCCC[C@H](N)C(=O)O`, for which the cytotoxicity call in experiment [1] and in experiment [2] was “inactive” each time. Further, the growth inhibition call in experiment [3] was “inactive”.

For the compound `C[C@H]1CCCCO[C@@H](CN(C)C(=O)NC2CCCCC2)[C@@H](C)CN([C@@H](C)CO)C(=O)c2cc(NC(=O)Nc3ccc(F)cc3)ccc2O1`, the cytotoxicity call in experiment [1] was “inactive”. Further, in experiment [2], the cytotoxicity call is “active”. In addition, the growth inhibition call in experiment [3] was “inactive”.

For `C[C@@H]1CN([C@H](C)CO)C(=O)Cc2cc(NS(=O)(=O)c3cn(C)cn3)ccc2O[C@H]1CN(C)CC1CC1`, the cytotoxicity call in experiment [1] and in experiment [2] was “inactive” in each case. Besides, the growth inhibition call in experiment [3] was “inactive”.

Consider `C[C@@H]1CCCCO[C@H](CN(C)S(=O)(=O)c2ccc(Cl)cc2)[C@H](C)CN([C@@H](C)CO)C(=O)c2cc(NS(=O)(=O)c3ccc(F)cc3)ccc2O1`, for which, in experiment [1], the cytotoxicity call was “inactive”. In addition, the cytotoxicity call in experiment [2] is “active”. Moreover, the growth inhibition call in experiment [3] was “inactive”.
